Test results taken from paper PMC4336329 (PLoS ONE, 2015).
The campaign covered roughly 310,000 compounds. About 14,000 (4.5%) showed an effect of 50% or more. The effect is printed as a negative number. The list shows a part of the results.

What follows are molecules tested against human ether-à-go-go-related gene (hERG) potassium channel (human, UniProt Q12809) (assay: primary screen, population patch clamp on CHO cells stably expressing hERG).
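Note: peak tail current of the secondary pulse compared with the same well before compound.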

human ether-à-go-go-related gene (hERG) potassium channel, sequence (Q12809 whole entry, looked up): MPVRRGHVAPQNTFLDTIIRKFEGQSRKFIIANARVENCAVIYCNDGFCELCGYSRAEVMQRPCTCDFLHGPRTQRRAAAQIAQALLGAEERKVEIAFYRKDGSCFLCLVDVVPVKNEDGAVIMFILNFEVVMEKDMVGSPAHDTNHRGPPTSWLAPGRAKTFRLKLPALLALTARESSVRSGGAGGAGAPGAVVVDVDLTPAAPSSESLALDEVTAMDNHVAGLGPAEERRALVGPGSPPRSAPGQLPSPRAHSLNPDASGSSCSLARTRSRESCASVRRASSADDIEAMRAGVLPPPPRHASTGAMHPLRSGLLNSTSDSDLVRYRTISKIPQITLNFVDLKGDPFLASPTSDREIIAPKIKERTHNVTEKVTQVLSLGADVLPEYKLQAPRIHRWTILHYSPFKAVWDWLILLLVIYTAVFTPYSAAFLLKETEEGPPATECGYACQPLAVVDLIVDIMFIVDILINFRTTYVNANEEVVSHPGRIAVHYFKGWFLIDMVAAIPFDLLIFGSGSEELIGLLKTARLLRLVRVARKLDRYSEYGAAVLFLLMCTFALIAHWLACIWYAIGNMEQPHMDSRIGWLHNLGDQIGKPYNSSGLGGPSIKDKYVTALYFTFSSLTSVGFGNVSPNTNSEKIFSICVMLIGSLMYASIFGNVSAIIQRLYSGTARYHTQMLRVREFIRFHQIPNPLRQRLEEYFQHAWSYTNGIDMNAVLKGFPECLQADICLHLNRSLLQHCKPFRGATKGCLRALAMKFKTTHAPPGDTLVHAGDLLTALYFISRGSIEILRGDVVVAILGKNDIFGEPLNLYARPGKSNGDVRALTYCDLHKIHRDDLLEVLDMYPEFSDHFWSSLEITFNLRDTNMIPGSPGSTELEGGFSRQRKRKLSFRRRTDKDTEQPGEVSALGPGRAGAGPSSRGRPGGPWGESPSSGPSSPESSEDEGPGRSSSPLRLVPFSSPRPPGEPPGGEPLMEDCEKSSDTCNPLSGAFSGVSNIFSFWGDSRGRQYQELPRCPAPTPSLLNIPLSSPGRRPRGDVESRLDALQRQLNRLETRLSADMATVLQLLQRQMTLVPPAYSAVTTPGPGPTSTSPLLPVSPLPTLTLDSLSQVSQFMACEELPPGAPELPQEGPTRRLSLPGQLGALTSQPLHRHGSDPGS

SMILES	hERG current change (%, negative = inhibition) at 10uM [%]
CCOc1cc2[nH]c(=O)n(CCCN3CCN(c4ccc(OC)cc4)CC3)c(=O)c2cc1OCC	-67.8
COc1cc2c(cc1OC)CN(C(=O)/C=C/c1ccc([N+](=O)[O-])cc1)CC2	-55.1
CCOc1ccc(Nc2nc(CC(=O)OC)cc(=O)[nH]2)cc1	-0.095
NNC(=O)C(Cc1cnc[nH]1)NC(=O)OCc1ccccc1 (stereo not drawn)	12.3
COCCCNC(=O)C1=CCN(S(=O)(=O)c2ccc(C)cc2)CC1	-2.19
CCN(CC)CCNC(=O)CCCCn1c(=S)[nH]c2c([nH]c3ccc(OC)cc32)c1=O	33.2
COC1CCCN(C(=O)c2ccc(OC3CCN(S(=O)(=O)N(C)C)CC3)cc2)C1 (stereo not drawn)	8.14
CCSC1=C(C#N)C(c2ccccc2OC)CC(=O)N1 (stereo not drawn)	-9.7
C/C=C/C(=O)Nc1cccc(C(F)(F)F)c1	8.5
COC(=O)c1ccccc1NC(=O)c1cnn2cccnc12	13
Cc1cc(C)cc(N(CC(=O)NC(C)C)C(=O)CCC(=O)Nc2ccccn2)c1	5.94
CCc1nc2ccc(C(=O)NCCCN3CCN(c4ccc(F)cc4)CC3)cc2nc1CC	-66.4
COC(=O)c1cccnc1N1CCN(c2ccccc2F)CC1	-13.4
O=C(NNC(=O)C1CCN(C(=O)Nc2ccccc2)CC1)c1ccc([N+](=O)[O-])cc1	2.62
Cc1cc(NC(=O)CSc2n[nH]c(=O)[nH]c2=O)ccc1Br	26.6
Cc1ccccc1-c1nc(CS(=O)(=O)CC(=O)NCCN2CCCC2)c(C)o1	-10.4
CCNCc1cc(OCC)c(OCC(=O)NCCc2ccccc2)cc1Cl.Cl	-13
Cc1cc(C)c(C2=NOC3C4CCC(C4)C23)c(C)c1 (stereo not drawn)	-0.313
Cc1ccccc1C(=O)NNC(=O)C(=O)N1CCCCC1	0.748
Cc1cccc(NC(=S)N(Cc2ccc(Cl)cc2)Cc2ccc(C(=O)O)cc2)c1	12.3
COC(=O)CCC(=O)OC1(C)C(=O)C2=CN(Cc3ccco3)C(c3ccc(OC)cc3)=CC2=C(Br)C1=O (stereo not drawn)	-3.32
CC1CCN(c2ccc3c(c2)S(=O)(=O)c2cccc(C(=O)NCc4ccc(F)cc4)c2C3=O)CC1	-4
Br.O=C(N=c1nc2ccccn2s1)c1ccccc1	14.1

SMILES	hERG current change (%, negative = inhibition) at 10uM [%]
COc1cc(CN2CCC(n3nccc3NC(=O)c3ccccc3OC)CC2)ccc1F	-76.7
O=C(c1ccccc1)N1CCC(CC2CC(c3ccc(Cl)cc3)=NO2)(C(=O)NCC2CCCCC2)CC1 (stereo not drawn)	-52
O=C(NCCc1nc2ccccc2[nH]1)c1ccc([N+](=O)[O-])cc1	-56.8
Oc1ccccc1C=NC1=NN(c2cccc(C(F)(F)F)c2)CC1	3.42
CNC(=O)COC(=O)c1ccc(Cl)c(S(N)(=O)=O)c1	-28.8
O=C(CCC(=O)N1CCCc2ccccc21)N1CCN(S(=O)(=O)c2ccccc2)CC1	-9.26
Cc1ccsc1C(=O)C1CCCN(Cc2cccn2-c2ccccn2)C1 (stereo not drawn)	-75.8
COc1ccc2cc(C(C)C(=O)NC3CCC(O)CC3)ccc2c1 (stereo not drawn)	4.4
O=C(NCC1CCCO1)c1cccc(S(=O)(=O)Nc2ccc(F)cc2)c1 (stereo not drawn)	-3.75
CCCOc1ccc(Cc2c(O)nc(SC)[nH]c2=O)cc1	5.9
CC(C)OC(=O)CC1C(=O)NCCN1C(=S)NC(=O)c1cccs1 (stereo not drawn)	16.3
Cc1ccc(-c2nnc(Cc3ccc([N+](=O)[O-])cc3)o2)cc1	-64.9
N#Cc1ccc(OCC(=O)NNC(=S)NC2CCCCC2)cc1	-44.3
O=C(NCC1CCCN(Cc2ccccc2F)C1)c1cccc(C(F)(F)F)c1 (stereo not drawn)	-52.1
CCn1c(=O)c(C(=O)NC(C)c2ccccc2)c(O)c2ccccc21 (stereo not drawn)	19
Cc1ccc(-c2c(C)sc(=NC(=O)c3ccco3)n2C)cc1	4.73
COc1cc(/C=N/Nc2ccc(Cl)nn2)cc(OC)c1O	14.8
COc1ccc(Cn2c(N)c(C#N)c3nc4ccccc4nc32)cc1OC	5.44
CS(=O)(=O)c1ccc(Cl)c(NC(=O)CCCSc2ccccc2)c1	-6.39
COc1ccc(C2CC(=O)c3c(C)nc(N4CCN(Cc5ccccc5)CC4)nc3C2)cc1OC (stereo not drawn)	25.3
O=C(Cc1ccc([N+](=O)[O-])cc1)N/N=C/c1ccccc1F	1.7
CC1CCN(S(=O)(=O)c2ccc3[nH]cc(C(=O)NCCN4CCOCC4)c(=O)c3c2)CC1	4.43
